Laboratory results: the supplement of paper PMC4967469
Lines with a small IC50 respond at low doses; where the fit passes the top or lowest dose, that dose stands as a limit. The AUC spans the tested range (256-fold, ending at the top dose) of the same fit; the more sensitive the line, the further below 1. For part of these data: Any top dose called inferred was calculated from the reported fits. For part of these data: An entry number marks a drug with two screens in the source, which often give different values.

Legend:
Test in all cases: Viability of human cancer cell lines after 72 h of drug (GDSC screen)
CHIR-99021 = compound: Cc1cnc(-c2cnc(NCCNc3ccc(C#N)cn3)nc2-c2ccc(Cl)cc2Cl)[nH]1 [CHIR-99021]
Procedure: (§1)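 Human cancer cell lines in 384-well plates, medium with 10% serum, drug for 72 h over a 256-fold dose range (nine 2-fold or five 4-fold steps up to the top dose). Adherent lines were fixed and stained with the nucleic acid dye Syto60, suspension lines read with resazurin; signal relative to control wells, capped at 0 and 100%. One two-parameter sigmoid per drug and line, fitted in a mixed model over all curves with the slope shared within a line.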

MPS-1-IN-1 = compound: COc1cc(N2CCC(O)CC2)ccc1Nc1cc(Nc2ccccc2S(=O)(=O)C(C)C)c2cc[nH]c2n1 [MPS-1-IN-1]; settings: top dose 20 µM; top dose inferred
Procedure: as §1

(5Z)-7-Oxozeaenol = compound: COc1cc(O)c2c(c1)/C=C/C[C@H](O)[C@H](O)C(=O)/C=C\C[C@H](C)OC2=O [(5Z)-7-Oxozeaenol]; settings: top dose 10 µM; top dose inferred
Procedure: as §1

QL-X-138 = compound: C=CC(=O)Nc1cc(-n2c(=O)ccc3cnc4ccc(-c5cn[nH]c5)cc4c32)ccc1C [QL-X-138]; settings: top dose 10.24 µM; top dose inferred
Procedure: as §1

Zibotentan = compound: COc1nc(C)cnc1NS(=O)(=O)c1cccnc1-c1ccc(-c2nnco2)cc1 [Zibotentan]; settings: top dose 20 µM; top dose inferred
Procedure: as §1

GSK269962A = compound: CCn1c(-c2nonc2N)nc2cnc(Oc3cccc(NC(=O)c4ccc(OCCN5CCOCC5)cc4)c3)cc21 [GSK269962A]; settings: top dose 5 µM; screen: GDSC drug entry 1192; top dose inferred
Procedure: as §1

ABT-869 = compound: Cc1ccc(F)c(NC(=O)Nc2ccc(-c3cccc4[nH]nc(N)c34)cc2)c1 [ABT-869]; settings: top dose 1.024 µM; top dose inferred
Procedure: as §1

KU-55933 = compound: O=c1cc(-c2cccc3c2Sc2ccccc2S3)oc(N2CCOCC2)c1 [KU-55933]; settings: top dose 10 µM
Procedure: as §1

Thapsigargin = compound: C/C=C(/C)C(=O)O[C@H]1C(C)=C2[C@H]([C@@H]1OC(=O)CCCCCCC)[C@@](C)(OC(C)=O)C[C@H](OC(=O)CCC)[C@@]1(O)[C@H]2OC(=O)[C@@]1(C)O [Thapsigargin]; settings: top dose 0.512 µM; top dose inferred
Procedure: as §1

CP466722 = compound: COc1cc2ncnc(-n3nc(-c4ccccn4)nc3N)c2cc1OC [CP466722]; settings: top dose 16 µM; top dose inferred
Procedure: as §1

[1] = top dose 2.56 µM, screen: GDSC drug entry 154
[2] = top dose 10 µM, screen: GDSC drug entry 1241, top dose inferred

Cell Line	AUC (CHIR-99021; [1])	IC50 (CHIR-99021; [1]) [µM]	AUC (CHIR-99021; [2])	IC50 (CHIR-99021; [2]) [µM]	AUC (MPS-1-IN-1)	IC50 (MPS-1-IN-1) [µM]	AUC ((5Z)-7-Oxozeaenol)	IC50 ((5Z)-7-Oxozeaenol) [µM]	AUC (QL-X-138)	IC50 (QL-X-138) [µM]	AUC (Zibotentan)	IC50 (Zibotentan) [µM]	AUC (GSK269962A)	IC50 (GSK269962A) [µM]	AUC (ABT-869)	IC50 (ABT-869) [µM]	AUC (KU-55933)	IC50 (KU-55933) [µM]	AUC (Thapsigargin)	IC50 (Thapsigargin) [µM]	AUC (CP466722)	IC50 (CP466722) [µM]
786-0 (kidney, adherent)	0.985	> 2.56	0.9	> 10	0.88	17.9	0.699	2.16	0.518	0.713	0.974	> 20	0.874	4.19	0.972	> 1.02	0.964	> 10	0.053	< 0.002	0.825	8.58
A172 (glioma, adherent)	0.913	> 2.56	0.914	> 10	0.953	> 20	0.587	1.07	0.62	1.35	0.989	> 20	0.9	> 5	0.986	> 1.02	0.987	> 10	0.066	< 0.002	0.979	> 16
A549 (lung adenocarcinoma, adherent)	–	–	0.98	> 10	–	–	0.534	0.783	–	–	–	–	0.705	1.28	–	–	0.823	6.9	–	–	–	–
A673 (rhabdomyosarcoma, adherent)	0.989	> 2.56	0.947	> 10	0.933	> 20	0.684	1.92	0.961	> 10.2	0.988	> 20	0.954	> 5	0.99	> 1.02	0.976	> 10	0.212	0.00512	0.865	11.8
BCPAP (thyroid, adherent)	0.869	1.99	0.766	3.36	0.779	7.38	0.335	0.229	0.581	1.04	0.989	> 20	0.87	3.93	0.985	> 1.02	0.986	> 10	0.134	0.00264	0.896	> 16
BHY (head and neck, adherent)	0.986	> 2.56	0.98	> 10	0.882	> 20	0.716	2.56	0.714	2.59	0.987	> 20	0.977	> 5	0.979	> 1.02	0.96	> 10	0.171	0.0032	0.808	8.29
BPH-1 (prostate, adherent)	0.94	> 2.56	0.933	> 10	0.772	8.57	0.573	1.01	–	–	0.977	> 20	0.919	> 5	0.976	> 1.02	0.947	> 10	0.323	0.00965	0.803	8.91
CAL-54 (kidney, adherent)	0.977	> 2.56	0.746	3.58	0.957	> 20	0.585	1.11	0.929	> 10.2	0.982	> 20	0.927	> 5	0.977	> 1.02	0.896	> 10	0.941	> 0.512	0.81	9.93
CHP-134 (neuroblastoma, suspension)	–	–	–	–	0.854	> 20	–	–	0.674	2.25	0.977	> 20	–	–	0.98	> 1.02	0.901	> 10	–	–	0.776	8.2
ChaGo-K-1 (non-small cell lung carcinoma, adherent)	0.985	> 2.56	0.943	> 10	0.937	> 20	0.681	2.19	0.813	6.69	0.981	> 20	0.894	> 5	0.983	> 1.02	0.982	> 10	0.326	0.00966	0.862	> 16
EBC-1 (lung squamous cell carcinoma, adherent)	–	–	–	–	0.978	> 20	0.693	2.35	0.779	4.74	0.983	> 20	0.845	4.31	0.983	> 1.02	0.942	> 10	0.449	0.0227	0.851	14.7
GAMG (glioma, adherent)	0.981	> 2.56	0.973	> 10	0.929	> 20	0.601	1.2	0.531	0.78	0.978	> 20	0.858	4.43	0.977	> 1.02	0.882	> 10	0.265	0.00656	0.745	5.25
H2591 (mesothelioma, adherent)	0.981	> 2.56	0.91	> 10	0.973	> 20	0.824	8.53	0.788	6.01	0.981	> 20	0.912	> 5	0.979	> 1.02	0.94	> 10	0.382	0.0137	0.868	> 16
HCC1806 (breast, adherent)	0.975	> 2.56	0.975	> 10	0.962	> 20	0.778	3.73	0.794	4.3	0.987	> 20	0.936	> 5	0.989	> 1.02	0.988	> 10	0.246	0.00641	0.902	> 16
HCT-116 (large intestine, adherent)	–	–	–	–	–	–	0.459	0.485	0.653	1.66	0.987	> 20	0.823	2.75	0.979	> 1.02	0.978	> 10	0.243	0.00608	0.735	4.49
HLE (liver, adherent)	0.988	> 2.56	0.953	> 10	0.937	> 20	0.558	0.89	0.83	5.93	0.988	> 20	0.857	3.7	0.977	> 1.02	0.955	> 10	0.255	0.00665	0.963	> 16
Jurkat (T-cell leukaemia, suspension)	–	–	0.949	> 10	–	–	0.773	3.22	–	–	–	–	0.845	2.69	–	–	0.967	> 10	–	–	–	–
NCI-H522 (lung adenocarcinoma, adherent)	–	–	–	–	0.87	> 20	0.723	3.05	0.903	> 10.2	0.976	> 20	0.926	> 5	0.975	> 1.02	0.959	> 10	0.372	0.0133	0.785	8.27
NCI-H2066 (small cell lung carcinoma, adherent)	–	–	0.974	> 10	–	–	0.927	> 10	–	–	–	–	0.969	> 5	–	–	0.975	> 10	–	–	–	–
SK-CO-1 (large intestine, adherent)	0.965	> 2.56	0.952	> 10	0.825	11.1	–	–	0.989	> 10.2	0.989	> 20	0.666	0.876	0.989	> 1.02	0.953	> 10	0.328	0.011	0.989	> 16
SU-DHL-10 (B-cell lymphoma, suspension)	0.961	> 2.56	0.998	> 10	0.942	17.2	0.873	5.17	0.325	0.242	0.997	> 20	0.979	> 5	0.998	> 1.02	0.945	8.82	–	–	0.584	1.6
SW1088 (glioma, adherent)	0.978	> 2.56	0.92	> 10	0.972	> 20	0.788	5.87	0.878	> 10.2	0.979	> 20	0.628	0.785	0.977	> 1.02	–	–	0.652	0.0962	0.829	14.3
SW1463 (large intestine, adherent)	0.969	> 2.56	0.937	> 10	0.978	> 20	0.801	> 10	0.779	7.95	0.973	> 20	0.916	> 5	0.973	> 1.02	–	–	0.817	> 0.512	0.907	> 16
T-24 (bladder, adherent)	0.966	> 2.56	0.913	> 10	0.945	> 20	0.642	1.51	0.823	5.7	0.988	> 20	0.82	2.71	0.987	> 1.02	–	–	0.323	0.0105	0.847	10.9
